Reference: PMC5908784, “Extracellular loops 2 and 3 of the calcitonin receptor selectively modify agonist binding and efficacy” (Biochemical Pharmacology, 2018)

Legend:
Assay in all cases: ERK1/2 phosphorylation
Assay type in all cases: cell-based
hCTR M376A = target: T1, hCTR M376A (Homo sapiens, UniProt P30988, M376A); details: pERK, CV1-FlpIn cells, three-parameter logistic fit, mean ± S.E.M.
T1 construct: c-Myc (N); expressed in transfected cells
Method: (§1) Cells (2.5 × 10^4 cells/well) were seeded into 96-well culture plates and incubated overnight. […] Data were normalized to the maximal response elicited by 10% FBS determined at 6 min.
(§2) Data were corrected for radioligand occupancy using the Cheng-Prusoff equation in Prism; as such data are reported as pKi. Emax and EC50 were estimated from concentration-response curves using with a 3-parameter logistic equation in Prism (v7). These values are a composite of functional affinity, efficacy and stimulus response coupling. […] Significance was accepted at P < 0.05.

hCTR W361A = target: T2, hCTR W361A (Homo sapiens, UniProt P30988, W361A)
T2 construct: expressed in transfected cells
Method: as §1, §2

hCTR F356A = target: T3, hCTR F356A (Homo sapiens, UniProt P30988, F356A); details: pERK, CV1-FlpIn cells, three-parameter logistic fit, mean ± S.E.M.
T3 construct: c-Myc (N); expressed in transfected cells
Method: as §1, §2

hCTR R362A = target: T4, hCTR R362A (Homo sapiens, UniProt P30988, R362A); details: pERK, CV1-FlpIn cells, three-parameter logistic fit, mean ± S.E.M.
T4 construct: expressed in transfected cells
Method: as §1, §2

hCTR E294A = target: T5, hCTR E294A (Homo sapiens, UniProt P30988, E294A)
T5 construct: c-Myc (N); expressed in transfected cells
Method: as §1, §2

hCTR G369A = target: T6, hCTR G369A (Homo sapiens, UniProt P30988, G369A); details: pERK, CV1-FlpIn cells, three-parameter logistic fit, mean ± S.E.M.
T6 construct: c-Myc (N); expressed in transfected cells
Method: as §1, §2

hCTR H296A = target: T7, hCTR H296A (Homo sapiens, UniProt P30988, H296A); details: pERK, CV1-FlpIn cells, three-parameter logistic fit, mean ± S.E.M.
T7 construct: c-Myc (N); expressed in transfected cells
Method: as §1, §2

hCTR L298A = target: T8, hCTR L298A (Homo sapiens, UniProt P30988, L298A); details: pERK, CV1-FlpIn cells, three-parameter logistic fit, mean ± S.E.M.
T8 construct: c-Myc (N); expressed in transfected cells
Method: as §1, §2

hCTR Y299A = target: T9, hCTR Y299A (Homo sapiens, UniProt P30988, Y299A); details: pERK, CV1-FlpIn cells, three-parameter logistic fit, mean ± S.E.M.
T9 construct: c-Myc (N); expressed in transfected cells
Method: as §1, §2

hCTR M367A = target: T10, hCTR M367A (Homo sapiens, UniProt P30988, M367A); details: pERK, CV1-FlpIn cells, three-parameter logistic fit, mean ± S.E.M.
T10 construct: c-Myc (N); expressed in transfected cells
Method: as §1, §2

hCTR N288A = target: T11, hCTR N288A (Homo sapiens, UniProt P30988, N288A); details: pERK, CV1-FlpIn cells, three-parameter logistic fit, mean ± S.E.M.
T11 construct: expressed in transfected cells
Method: as §1, §2

hCTR I300A = target: T12, hCTR I300A (Homo sapiens, UniProt P30988, I300A); details: pERK, CV1-FlpIn cells, three-parameter logistic fit, mean ± S.E.M.
T12 construct: c-Myc (N); expressed in transfected cells
Method: as §1, §2

hCTR N365A = target: T13, hCTR N365A (Homo sapiens, UniProt P30988, N365A); details: pERK, CV1-FlpIn cells, three-parameter logistic fit, mean ± S.E.M.
T13 construct: c-Myc (N); expressed in transfected cells
Method: as §1, §2

hCTR WT = target: T14, hCTR WT (Homo sapiens, UniProt P30988); details: pERK, CV1-FlpIn cells, three-parameter logistic fit, mean ± S.E.M.
T14 construct: expressed in transfected cells
Method: as §1, §2

hCTR V293A = target: T15, hCTR V293A (Homo sapiens, UniProt P30988, V293A); details: pERK, CV1-FlpIn cells, three-parameter logistic fit, mean ± S.E.M.
T15 construct: c-Myc (N); expressed in transfected cells
Method: as §1, §2

hCTR V375A = target: T16, hCTR V375A (Homo sapiens, UniProt P30988, V375A); details: pERK, CV1-FlpIn cells, three-parameter logistic fit, mean ± S.E.M.
T16 construct: c-Myc (N); expressed in transfected cells
Method: as §1, §2

hCTR T295A = target: T17, hCTR T295A (Homo sapiens, UniProt P30988, T295A); details: pERK, CV1-FlpIn cells, three-parameter logistic fit, mean ± S.E.M.
T17 construct: c-Myc (N); expressed in transfected cells
Method: as §1, §2

hCTR N286A = target: T18, hCTR N286A (Homo sapiens, UniProt P30988, N286A); details: pERK, CV1-FlpIn cells, three-parameter logistic fit, mean ± S.E.M.
T18 construct: c-Myc (N); expressed in transfected cells
Method: as §1, §2

hCTR K366A = target: T19, hCTR K366A (Homo sapiens, UniProt P30988, K366A); details: pERK, CV1-FlpIn cells, three-parameter logistic fit, mean ± S.E.M.
T19 construct: c-Myc (N); expressed in transfected cells
Method: as §1, §2

hCTR L368A = target: T20, hCTR L368A (Homo sapiens, UniProt P30988, L368A); details: pERK, CV1-FlpIn cells, three-parameter logistic fit, mean ± S.E.M.
T20 construct: c-Myc (N); expressed in transfected cells
Method: as §1, §2

hCTR P363A = target: T21, hCTR P363A (Homo sapiens, UniProt P30988, P363A); details: pERK, CV1-FlpIn cells, three-parameter logistic fit, mean ± S.E.M.
T21 construct: expressed in transfected cells
Method: as §1, §2

hCTR L291A = target: T22, hCTR L291A (Homo sapiens, UniProt P30988, L291A); details: pERK, CV1-FlpIn cells, three-parameter logistic fit, mean ± S.E.M.
T22 construct: expressed in transfected cells
Method: as §1, §2

hCTR Y284A = target: T23, hCTR Y284A (Homo sapiens, UniProt P30988, Y284A); details: pERK, CV1-FlpIn cells, three-parameter logistic fit, mean ± S.E.M.
T23 construct: expressed in transfected cells
Method: as §1, §2

hCTR V358A = target: T24, hCTR V358A (Homo sapiens, UniProt P30988, V358A); details: pERK, CV1-FlpIn cells, three-parameter logistic fit, mean ± S.E.M.
T24 construct: c-Myc (N); expressed in transfected cells
Method: as §1, §2

hCTR V357A = target: T25, hCTR V357A (Homo sapiens, UniProt P30988, V357A); details: pERK, CV1-FlpIn cells, three-parameter logistic fit, mean ± S.E.M.
T25 construct: c-Myc (N); expressed in transfected cells
Method: as §1, §2

hCTR R281A = target: T26, hCTR R281A (Homo sapiens, UniProt P30988, R281A); details: pERK, CV1-FlpIn cells, three-parameter logistic fit, mean ± S.E.M.
T26 construct: expressed in transfected cells
Method: as §1, §2

hCTR Y374A = target: T27, hCTR Y374A (Homo sapiens, UniProt P30988, Y374A); details: pERK, CV1-FlpIn cells, three-parameter logistic fit, mean ± S.E.M.
T27 construct: c-Myc (N); expressed in transfected cells
Method: as §1, §2

hCTR T280A = target: T28, hCTR T280A (Homo sapiens, UniProt P30988, T280A); details: pERK, CV1-FlpIn cells, three-parameter logistic fit, mean ± S.E.M.
T28 construct: expressed in transfected cells
Method: as §1, §2

hCTR S292A = target: T29, hCTR S292A (Homo sapiens, UniProt P30988, S292A); details: pERK, CV1-FlpIn cells, three-parameter logistic fit, mean ± S.E.M.
T29 construct: expressed in transfected cells
Method: as §1, §2

hCTR I279A = target: T30, hCTR I279A (Homo sapiens, UniProt P30988, I279A); details: pERK, CV1-FlpIn cells, three-parameter logistic fit, mean ± S.E.M.
T30 construct: expressed in transfected cells
Method: as §1, §2

hCTR F359A = target: T31, hCTR F359A (Homo sapiens, UniProt P30988, F359A)
T31 construct: expressed in transfected cells
Method: as §1, §2

hCTR S364A = target: T32, hCTR S364A (Homo sapiens, UniProt P30988, S364A); details: pERK, CV1-FlpIn cells, three-parameter logistic fit, mean ± S.E.M.
T32 construct: c-Myc (N); expressed in transfected cells
Method: as §1, §2

hCTR L297A = target: T33, hCTR L297A (Homo sapiens, UniProt P30988, L297A); details: pERK, CV1-FlpIn cells, three-parameter logistic fit, mean ± S.E.M.
T33 construct: c-Myc (N); expressed in transfected cells
Method: as §1, §2

hCTR V283A = target: T34, hCTR V283A (Homo sapiens, UniProt P30988, V283A); details: pERK, CV1-FlpIn cells, three-parameter logistic fit, mean ± S.E.M.
T34 construct: expressed in transfected cells
Method: as §1, §2

T6 sequence (P30988 25-474 G369A): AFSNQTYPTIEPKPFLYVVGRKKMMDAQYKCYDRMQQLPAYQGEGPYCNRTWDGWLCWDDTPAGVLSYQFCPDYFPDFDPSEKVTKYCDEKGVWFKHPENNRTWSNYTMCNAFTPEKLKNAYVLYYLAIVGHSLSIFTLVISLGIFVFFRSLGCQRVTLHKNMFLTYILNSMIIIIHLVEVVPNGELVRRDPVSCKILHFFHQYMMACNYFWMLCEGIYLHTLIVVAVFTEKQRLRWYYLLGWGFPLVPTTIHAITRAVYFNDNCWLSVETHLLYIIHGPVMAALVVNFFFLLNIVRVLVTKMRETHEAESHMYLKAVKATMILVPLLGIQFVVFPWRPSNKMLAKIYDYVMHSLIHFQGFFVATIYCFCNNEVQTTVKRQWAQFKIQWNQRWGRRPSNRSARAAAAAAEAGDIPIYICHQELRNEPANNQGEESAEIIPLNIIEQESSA
T16 sequence (P30988 25-474 V375A): as the sequence (P30988 25-474 G369A) above, with A345G, V351A counted along it
T10 sequence (P30988 25-474 M367A): as the sequence (P30988 25-474 G369A) above, with M343A, A345G counted along it
T5 sequence (P30988 25-474 E294A): as the sequence (P30988 25-474 G369A) above, with E270A, A345G counted along it
T25 sequence (P30988 25-474 V357A): as the sequence (P30988 25-474 G369A) above, with V333A, A345G counted along it
T26 sequence (P30988 25-474 R281A): as the sequence (P30988 25-474 G369A) above, with R257A, A345G counted along it
T14 sequence (P30988 25-474): as the sequence (P30988 25-474 G369A) above, with A345G counted along it
T31 sequence (P30988 25-474 F359A): as the sequence (P30988 25-474 G369A) above, with F335A, A345G counted along it
T30 sequence (P30988 25-474 I279A): as the sequence (P30988 25-474 G369A) above, with I255A, A345G counted along it
T32 sequence (P30988 25-474 S364A): as the sequence (P30988 25-474 G369A) above, with S340A, A345G counted along it
T19 sequence (P30988 25-474 K366A): as the sequence (P30988 25-474 G369A) above, with K342A, A345G counted along it
T4 sequence (P30988 25-474 R362A): as the sequence (P30988 25-474 G369A) above, with R338A, A345G counted along it
T24 sequence (P30988 25-474 V358A): as the sequence (P30988 25-474 G369A) above, with V334A, A345G counted along it
T7 sequence (P30988 25-474 H296A): as the sequence (P30988 25-474 G369A) above, with H272A, A345G counted along it
T23 sequence (P30988 25-474 Y284A): as the sequence (P30988 25-474 G369A) above, with Y260A, A345G counted along it
T34 sequence (P30988 25-474 V283A): as the sequence (P30988 25-474 G369A) above, with V259A, A345G counted along it
T18 sequence (P30988 25-474 N286A): as the sequence (P30988 25-474 G369A) above, with N262A, A345G counted along it
T28 sequence (P30988 25-474 T280A): as the sequence (P30988 25-474 G369A) above, with T256A, A345G counted along it
T1 sequence (P30988 25-474 M376A): as the sequence (P30988 25-474 G369A) above, with A345G, M352A counted along it
T29 sequence (P30988 25-474 S292A): as the sequence (P30988 25-474 G369A) above, with S268A, A345G counted along it
T27 sequence (P30988 25-474 Y374A): as the sequence (P30988 25-474 G369A) above, with A345G, Y350A counted along it
T21 sequence (P30988 25-474 P363A): as the sequence (P30988 25-474 G369A) above, with P339A, A345G counted along it
T20 sequence (P30988 25-474 L368A): as the sequence (P30988 25-474 G369A) above, with L344A, A345G counted along it
T12 sequence (P30988 25-474 I300A): as the sequence (P30988 25-474 G369A) above, with I276A, A345G counted along it
T8 sequence (P30988 25-474 L298A): as the sequence (P30988 25-474 G369A) above, with L274A, A345G counted along it
T33 sequence (P30988 25-474 L297A): as the sequence (P30988 25-474 G369A) above, with L273A, A345G counted along it
T15 sequence (P30988 25-474 V293A): as the sequence (P30988 25-474 G369A) above, with V269A, A345G counted along it
T9 sequence (P30988 25-474 Y299A): as the sequence (P30988 25-474 G369A) above, with Y275A, A345G counted along it
T11 sequence (P30988 25-474 N288A): as the sequence (P30988 25-474 G369A) above, with N264A, A345G counted along it
T13 sequence (P30988 25-474 N365A): as the sequence (P30988 25-474 G369A) above, with N341A, A345G counted along it
T3 sequence (P30988 25-474 F356A): as the sequence (P30988 25-474 G369A) above, with F332A, A345G counted along it
T2 sequence (P30988 25-474 W361A): as the sequence (P30988 25-474 G369A) above, with W337A, A345G counted along it
T22 sequence (P30988 25-474 L291A): as the sequence (P30988 25-474 G369A) above, with L267A, A345G counted along it
T17 sequence (P30988 25-474 T295A): as the sequence (P30988 25-474 G369A) above, with T271A, A345G counted along it

Compound: CC(C)C[C@H](NC(=O)[C@H](CC(N)=O)NC(=O)[C@H](CC(N)=O)NC(=O)[C@H](CO)NC(=O)[C@H](CO)NC(=O)[C@H](CCCNC(=N)N)NC(=O)[C@@H](NC(=O)[C@H](CC(C)C)NC(=O)[C@H](Cc1ccccc1)NC(=O)[C@H](CC(N)=O)NC(=O)[C@H](C)NC(=O)[C@H](CC(C)C)NC(=O)[C@H](CCCNC(=N)N)NC(=O)[C@H](CCC(N)=O)NC(=O)[C@@H](NC(=O)[C@H](C)NC(=O)[C@@H]1CSSC[C@H](NC(=O)[C@@H](N)CCCCN)C(=O)N[C@@H](CC(N)=O)C(=O)N[C@@H]([C@@H](C)O)C(=O)N[C@@H](C)C(=O)N[C@@H]([C@@H](C)O)C(=O)N1)[C@@H](C)O)C(C)C)C(=O)NCC(=O)N1CCC[C@H]1C(=O)N[C@H](C(=O)N[C@@H](CC(C)C)C(=O)N1CCC[C@H]1C(=O)N1CCC[C@H]1C(=O)N[C@H](C(=O)N[C@@H](CC(N)=O)C(=O)N[C@H](C(=O)NCC(=O)N[C@@H](CO)C(=O)N[C@@H](CC(N)=O)C(=O)N[C@H](C(=O)N[C@@H](Cc1ccc(O)cc1)C(N)=O)[C@@H](C)O)C(C)C)[C@@H](C)O)C(C)C [rAmy]
- EC50 (hCTR M376A): 67.6 nM
- EC50 (hCTR W361A): 57.5 nM
- EC50 (hCTR F356A): 87.1 nM
- EC50 (hCTR R362A): 115 nM
- EC50 (hCTR E294A): 37.2 nM
- EC50 (hCTR G369A): 18.6 nM
- EC50 (hCTR H296A): 33.9 nM
- EC50 (hCTR L298A): 20.4 nM
- EC50 (hCTR Y299A): 60.3 nM
- EC50 (hCTR M367A): 64.6 nM
- EC50 (hCTR N288A): 52.5 nM
- EC50 (hCTR I300A): 33.1 nM
- EC50 (hCTR N365A): 18.6 nM
- EC50 (hCTR WT): 64.6 nM
- EC50 (hCTR V293A): 51.3 nM
- EC50 (hCTR V375A): 123 nM
- EC50 (hCTR T295A): 44.7 nM
- EC50 (hCTR N286A): 53.7 nM
- EC50 (hCTR K366A): 12.9 nM
- EC50 (hCTR L368A): 27.5 nM
- EC50 (hCTR P363A): 30.9 nM
- EC50 (hCTR L291A): 44.7 nM
- EC50 (hCTR Y284A): 20.4 nM
- EC50 (hCTR V358A): 58.9 nM
- EC50 (hCTR V357A): 34.7 nM
- EC50 (hCTR R281A): 69.2 nM
- EC50 (hCTR Y374A): 61.7 nM
- EC50 (hCTR T280A): 26.9 nM
- EC50 (hCTR S292A): 17.4 nM
- EC50 (hCTR I279A): 18.2 nM
- EC50 (hCTR F359A): 60.3 nM
- EC50 (hCTR S364A): 11.5 nM
- EC50 (hCTR L297A): 28.2 nM
- EC50 (hCTR V283A): 17 nM
